Assay results: the supplement of paper PMC10126150
Values marked as one replicate rest on one cluster of the flow cell; about a third of the high ones do not repeat.
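Also: ATP exposure 15 min at 22 °C before imaging.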

Each sequence was assayed on ATP (assay: switch fluorescence ratio, 500 uM ATP over buffer (Cy3 cluster intensity, sum of 5 cycles each) (fold (ratio)); higher = stronger signal-on switching upon ATP binding; sequences stand for … in TCGTCGGCAGCGTCAGATGTGTATAAGAGACAGTTTTTTTTTTTTTTTTTTTTTTTTT…TC). Settings: aptamer strand: ATP DNA aptamer (quencher-CACCTGGGGGAGTATTGCGGAGGAAGG + anchor), 100 nM annealed; ATP concentration: 500 uM; one replicate.
Outline: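 Five buffer/ATP imaging cycles were run on Cy3-labelled switching-strand clusters on a modified Illumina MiSeq flow-cell, with NaOH stripping and re-annealing between cycles. In each cycle, clusters annealed to 100 nM quencher-labelled ATP aptamer were imaged in selection buffer, then after 15 min with 500 uM ATP at 22 °C. Per cluster, the fluorescence ratio is summed target-cycle over summed buffer-cycle Cy3 intensity, averaged per switch-domain sequence. Only clusters within 100-1000 RFU were kept.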
AAAAAAACAG gave a switch fluorescence ratio of 1.04.
Sequence AAAAAATTC has a switch fluorescence ratio of 1.02.
For AAAAACATTG, the switch fluorescence ratio was 1.07.
AAAAAGAATA was tested, and the switch fluorescence ratio was 0.953.
AAAAAGGTAT was tested, and the switch fluorescence ratio was 1.01.
AAAAATAGTA gave a switch fluorescence ratio of 0.968.
For AAAAATCTAA, the switch fluorescence ratio was 0.986.
AAAAATGAAT gave a switch fluorescence ratio of 1.02.
AAAAATGCGT showed a switch fluorescence ratio of 1.01.
AAAAATGCTA gave a switch fluorescence ratio of 1.01.
Sequence AAAAATTGG has a switch fluorescence ratio of 0.953.
AAAACAGGCT gave a switch fluorescence ratio of 1.02.
In the case of AAAACATTCC, the switch fluorescence ratio is reported as 2.18.
For AAAACTGCAA, the switch fluorescence ratio was 1.54.
AAAACTGTGT gave a switch fluorescence ratio of 1.03.
AAAAGAAAAC showed a switch fluorescence ratio of 1.08.
For AAAAGAATTT, the switch fluorescence ratio was 0.952.
For AAAAGAGAAA, the switch fluorescence ratio was 0.946.
For AAAAGCACCC, the switch fluorescence ratio was 1.31.
For AAAAGGCAAC, the switch fluorescence ratio was 1.01.
For AAAAGTAAGC, the switch fluorescence ratio was 1.14.
Sequence AAAAGTAGCT has a switch fluorescence ratio of 1.01.
Sequence AAAAGTGGTT has a switch fluorescence ratio of 1.03.
AAAAGTTAGT was tested, and the switch fluorescence ratio was 0.988.
With AAAAGTTTCG the switch fluorescence ratio was 0.986.
With AAAATAAATA the switch fluorescence ratio was 1.21.
For AAAATAAGGG, the switch fluorescence ratio was 1.06.
AAAATAGCA showed a switch fluorescence ratio of 0.973.
AAAATAGGG was tested, and the switch fluorescence ratio was 1.02.
AAAATCCGTG was tested, and the switch fluorescence ratio was 1.03.
Sequence AAAATCGACT has a switch fluorescence ratio of 1.01.
Work on AAAATGAATG yielded a switch fluorescence ratio of 1.06.
Sequence AAAATGATCA has a switch fluorescence ratio of 0.973.
AAAATGTGAG showed a switch fluorescence ratio of 0.969.
AAAATTTGCC gave a switch fluorescence ratio of 1.03.
For AAACAATCTC, the switch fluorescence ratio was 1.05.
AAACACTGAG gave a switch fluorescence ratio of 1.18.
With AAACAGACAG the switch fluorescence ratio was 0.981.
Sequence AAACAGAGCA has a switch fluorescence ratio of 1.04.
With AAACAGGTAC the switch fluorescence ratio was 1.11.
For AAACATCAG, the switch fluorescence ratio was 0.986.
Work on AAACATGGTA yielded a switch fluorescence ratio of 1.04.
With AAACATTAGG the switch fluorescence ratio was 1.01.
AAACCAAAGT showed a switch fluorescence ratio of 0.997.
AAACCCATAC was tested, and the switch fluorescence ratio was 1.46.
Sequence AAACCCATGT has a switch fluorescence ratio of 1.03.
Sequence AAACCTAAAA has a switch fluorescence ratio of 0.978.
Sequence AAACCTAGCT has a switch fluorescence ratio of 1.18.
In the case of AAACCTAGGG, the switch fluorescence ratio is reported as 1.01.
For AAACCTCCGG, the switch fluorescence ratio was 1.11.
AAACCTCGGG showed a switch fluorescence ratio of 0.97.
AAACGAGTAG gave a switch fluorescence ratio of 1.
AAACGCCGGT showed a switch fluorescence ratio of 0.963.
With AAACGCGACA the switch fluorescence ratio was 1.2.
Sequence AAACGGAACG has a switch fluorescence ratio of 1.1.
AAACGGCCAT gave a switch fluorescence ratio of 1.08.
For AAACGGCCGA, the switch fluorescence ratio was 0.979.
AAACGGCGGA was tested, and the switch fluorescence ratio was 1.02.
AAACGGGGCC showed a switch fluorescence ratio of 1.04.
With AAACGTCCCT the switch fluorescence ratio was 1.11.
Sequence AAACGTGGTA has a switch fluorescence ratio of 0.997.
AAACGTTAGT gave a switch fluorescence ratio of 0.95.
AAACTAGCCT gave a switch fluorescence ratio of 1.18.
AAACTCACGG was tested, and the switch fluorescence ratio was 1.4.
Sequence AAACTCGGTG has a switch fluorescence ratio of 1.01.
AAACTGATTT was tested, and the switch fluorescence ratio was 1.04.
For AAACTTTATA, the switch fluorescence ratio was 1.02.
AAAGAACATG was tested, and the switch fluorescence ratio was 1.02.
In the case of AAAGAAGGT, the switch fluorescence ratio is reported as 1.02.
In the case of AAAGACATAA, the switch fluorescence ratio is reported as 1.08.
In the case of AAAGACCAAT, the switch fluorescence ratio is reported as 1.01.
AAAGACCGGA was tested, and the switch fluorescence ratio was 1.01.
AAAGACCTTG showed a switch fluorescence ratio of 1.01.
Work on AAAGACTGTG yielded a switch fluorescence ratio of 1.1.
With AAAGACTTAA the switch fluorescence ratio was 0.995.
AAAGAGGATT was tested, and the switch fluorescence ratio was 0.957.
With AAAGAGGGGC the switch fluorescence ratio was 0.993.
Work on AAAGATACGG yielded a switch fluorescence ratio of 1.14.
AAAGCACGAT gave a switch fluorescence ratio of 1.07.
In the case of AAAGCACTTA, the switch fluorescence ratio is reported as 1.06.
Work on AAAGCCACAT yielded a switch fluorescence ratio of 1.03.
Sequence AAAGCCTGT has a switch fluorescence ratio of 0.985.
Work on AAAGCCTTGT yielded a switch fluorescence ratio of 0.95.
Sequence AAAGCGTACT has a switch fluorescence ratio of 1.09.
Sequence AAAGCGTGAA has a switch fluorescence ratio of 1.01.
In the case of AAAGCTAATG, the switch fluorescence ratio is reported as 0.986.
With AAAGCTAGTG the switch fluorescence ratio was 1.01.
In the case of AAAGCTTCGC, the switch fluorescence ratio is reported as 0.935.
Sequence AAAGGACTAC has a switch fluorescence ratio of 1.07.
In the case of AAAGGATGCC, the switch fluorescence ratio is reported as 0.993.
AAAGGCATGA gave a switch fluorescence ratio of 0.996.
With AAAGGCCCAA the switch fluorescence ratio was 0.955.
For AAAGGCCCTC, the switch fluorescence ratio was 1.
For AAAGGCCTCC, the switch fluorescence ratio was 1.04.
For AAAGGCTTCA, the switch fluorescence ratio was 1.19.
In the case of AAAGGGAGTC, the switch fluorescence ratio is reported as 0.954.
Sequence AAAGGGCTA has a switch fluorescence ratio of 1.01.
Work on AAAGGGGAAG yielded a switch fluorescence ratio of 1.03.
For AAAGGTGTGC, the switch fluorescence ratio was 1.34.
For AAAGTATAT, the switch fluorescence ratio was 0.97.
In the case of AAAGTCATCA, the switch fluorescence ratio is reported as 0.98.
With AAAGTCCCCT the switch fluorescence ratio was 1.17.
AAAGTCCGGT was tested, and the switch fluorescence ratio was 1.02.
AAAGTCCTTC was tested, and the switch fluorescence ratio was 1.07.
AAAGTCGAAT showed a switch fluorescence ratio of 1.01.
Work on AAAGTCGGGA yielded a switch fluorescence ratio of 1.
With AAAGTGACAT the switch fluorescence ratio was 0.989.
AAAGTTAGA was tested, and the switch fluorescence ratio was 1.
In the case of AAAGTTCTCG, the switch fluorescence ratio is reported as 0.994.
With AAAGTTGAGG the switch fluorescence ratio was 0.967.
Sequence AAAGTTGCTG has a switch fluorescence ratio of 0.972.
AAATAATTAC was tested, and the switch fluorescence ratio was 1.
AAATACCGTG showed a switch fluorescence ratio of 1.
Work on AAATACGGAG yielded a switch fluorescence ratio of 0.992.
For AAATACGGG, the switch fluorescence ratio was 1.05.
AAATAGAAAC gave a switch fluorescence ratio of 0.938.
Work on AAATAGGAAT yielded a switch fluorescence ratio of 1.06.
AAATATCCCC gave a switch fluorescence ratio of 1.06.
AAATATTCA was tested, and the switch fluorescence ratio was 1.02.
AAATCAGTGT was tested, and the switch fluorescence ratio was 0.999.
Sequence AAATCAGTTC has a switch fluorescence ratio of 1.04.
AAATCCCCGA showed a switch fluorescence ratio of 0.946.
AAATCGGCTG gave a switch fluorescence ratio of 0.978.
In the case of AAATCTAGCT, the switch fluorescence ratio is reported as 1.03.
For AAATGAAAAT, the switch fluorescence ratio was 1.01.
AAATGAGTAC showed a switch fluorescence ratio of 0.936.
With AAATGCGGGC the switch fluorescence ratio was 1.09.
AAATGGCCCG showed a switch fluorescence ratio of 0.98.
AAATGGCGAA gave a switch fluorescence ratio of 1.03.
Work on AAATGGGAGT yielded a switch fluorescence ratio of 1.01.
Work on AAATGGGTGT yielded a switch fluorescence ratio of 1.05.
For AAATGGTGCC, the switch fluorescence ratio was 1.
AAATGTGTGC showed a switch fluorescence ratio of 1.06.
AAATGTTAGA showed a switch fluorescence ratio of 0.997.
Sequence AAATTAATGA has a switch fluorescence ratio of 1.
Work on AAATTACATG yielded a switch fluorescence ratio of 1.04.
AAATTATAGC was tested, and the switch fluorescence ratio was 0.977.
In the case of AAATTCACTG, the switch fluorescence ratio is reported as 1.01.
In the case of AAATTCATCA, the switch fluorescence ratio is reported as 1.
Work on AAATTGCGGT yielded a switch fluorescence ratio of 0.965.
AAATTGTCCA gave a switch fluorescence ratio of 0.985.
For AAATTGTGTC, the switch fluorescence ratio was 0.962.
Sequence AAATTTACGA has a switch fluorescence ratio of 1.09.
For AAATTTACGT, the switch fluorescence ratio was 1.09.
AAATTTAGAG gave a switch fluorescence ratio of 1.01.
AAATTTCAGA showed a switch fluorescence ratio of 1.01.
AAATTTTATA gave a switch fluorescence ratio of 1.02.
Work on AAATTTTGAC yielded a switch fluorescence ratio of 1.01.
AACAAAGAAA was tested, and the switch fluorescence ratio was 0.937.
Work on AACAACGAGC yielded a switch fluorescence ratio of 0.973.
Sequence AACAACGAGG has a switch fluorescence ratio of 0.989.
Work on AACAACGCCT yielded a switch fluorescence ratio of 1.09.
Sequence AACAACGCGT has a switch fluorescence ratio of 0.991.
AACAAGAAAC was tested, and the switch fluorescence ratio was 1.05.
With AACAAGCACG the switch fluorescence ratio was 1.17.
Sequence AACAATTGCT has a switch fluorescence ratio of 0.964.
In the case of AACAATTGTG, the switch fluorescence ratio is reported as 1.01.
AACACAGATA was tested, and the switch fluorescence ratio was 1.01.
AACACCATGT was tested, and the switch fluorescence ratio was 1.
In the case of AACACCCAGA, the switch fluorescence ratio is reported as 1.11.
In the case of AACACCTTT, the switch fluorescence ratio is reported as 0.997.
AACACGTCGA showed a switch fluorescence ratio of 1.06.
AACACTGGCA showed a switch fluorescence ratio of 1.04.
In the case of AACACTTATG, the switch fluorescence ratio is reported as 1.03.
In the case of AACAGAAGC, the switch fluorescence ratio is reported as 1.04.
Work on AACAGACGTG yielded a switch fluorescence ratio of 1.02.
With AACAGCATGT the switch fluorescence ratio was 1.04.
AACAGTAGGA showed a switch fluorescence ratio of 1.
AACAGTGAGA showed a switch fluorescence ratio of 0.988.
Work on AACAGTGGCG yielded a switch fluorescence ratio of 1.06.
AACAGTGGGA was tested, and the switch fluorescence ratio was 0.962.
AACAGTTGC showed a switch fluorescence ratio of 0.989.
AACATCCTAT gave a switch fluorescence ratio of 0.998.
Sequence AACATCTTTC has a switch fluorescence ratio of 0.987.
Sequence AACATGTGAG has a switch fluorescence ratio of 1.01.
Work on AACCAACACG yielded a switch fluorescence ratio of 1.15.
AACCAATACG was tested, and the switch fluorescence ratio was 1.57.
AACCACCTTC showed a switch fluorescence ratio of 1.3.
AACCAGACGA was tested, and the switch fluorescence ratio was 1.73.
Sequence AACCAGTAGG has a switch fluorescence ratio of 1.03.
AACCAGTCGG gave a switch fluorescence ratio of 0.982.
Sequence AACCATTTGA has a switch fluorescence ratio of 1.02.
Work on AACCCATGC yielded a switch fluorescence ratio of 1.21.
With AACCCGTGTC the switch fluorescence ratio was 1.05.
AACCCGTTCA showed a switch fluorescence ratio of 1.03.
In the case of AACCCTGGCG, the switch fluorescence ratio is reported as 1.02.
Sequence AACCCTTAAG has a switch fluorescence ratio of 1.01.
Sequence AACCCTTGCG has a switch fluorescence ratio of 1.07.
With AACCGCACT the switch fluorescence ratio was 1.81.
AACCGGTGGG was tested, and the switch fluorescence ratio was 0.966.
For AACCGTCTCC, the switch fluorescence ratio was 2.06.
In the case of AACCGTGGA, the switch fluorescence ratio is reported as 1.03.
With AACCGTTGGA the switch fluorescence ratio was 1.
With AACCTAGCTC the switch fluorescence ratio was 1.14.
Sequence AACCTCGG has a switch fluorescence ratio of 0.961.
In the case of AACCTGAAAC, the switch fluorescence ratio is reported as 1.3.
For AACCTGTTCC, the switch fluorescence ratio was 1.83.
For AACCTTATAT, the switch fluorescence ratio was 1.
AACCTTCCAC gave a switch fluorescence ratio of 2.86.
AACCTTCTAT was tested, and the switch fluorescence ratio was 1.39.
In the case of AACCTTTTTG, the switch fluorescence ratio is reported as 1.06.
